Consider 61 compounds from ChEMBL document CHEMBL1201862, “PubChem BioAssay data set” (2004).

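Exposure lasted 48 hours, with cells grown in 96-well plates and compounds tested at five concentrations. Here, GI50 denotes the concentration required for 50% inhibition of growth.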 Calls of active or inactive are those of the source. Rule as the data show it: active = GI50 up to about 1.1 µM and inactive = higher.

This assay has as its system NCI-H322M. Briefly: NCI tumour cell line growth inhibition, 48 h.
`NCCSCCc1ccccc1`: the GI50 is inactive: > 100 µM. With `[O-][n+]1c(CN2CCCCC2)nc2cccc3c2c1-c1ccccc1-3`, the GI50 was inactive: 20.7 µM. As to `C/C(=N/S(=O)(=O)c1ccc(Cl)c(Cl)c1)OCC(C)(C)C`, the GI50 was inactive: > 100 µM. Take `CC(=O)C(C(c1ccccc1)N1CCOCC1)N1CCOCC1` (stereo unspecified): the GI50 is inactive: > 100 µM. In the case of `COc1ccc(/C=C2\C=Cc3ccccc32)cc1OC`, the GI50 was inactive: > 100 µM. With `COc1ccc(NC(C)=O)cc1C1CCC(=O)N1` (stereo unspecified) the figure was inactive: > 100 µM.

With `Cc1cc2c(cc1Cl)SC(NNC(=O)c1ccccc1)=NS2(=O)=O`, the GI50 is inactive: > 10 µM. As to `O=C(CCN1CCN(c2cccc(Cl)c2)CC1)N1CCc2c([nH]c3ccccc23)C1c1cccnc1` (stereo unspecified), the GI50 is inactive: 5.57 µM. With `O=C(CCC1CCCCN1)Nc1ccc2c(c1)C(=O)c1ccc(NC(=O)CCN3CCCCC3)cc1C2=O` (stereo unspecified) the figure was inactive: 10.1 µM; with `COC(=O)c1c(O)ccc2c1c1c(n2C)C(=O)c2ccccc2C1=O`, inactive: > 100 µM; with `COc1cc2c(c(OC)c1OC)-c1ccc(OC)c(=O)cc1C(NC(=O)c1ccc(N=[N+]=[N-])cc1)CC2` (stereo unspecified), active: 0.0531 µM.

Take `CCOC(=O)[C@@]12C[C@](/C=C/OC)(O[Si](C)(C)C)[C@@]13c1cc(OC)c(OC)cc1CCN3C(=O)C2=O`: the GI50 was inactive: > 100 µM.

Consider `COc1ccccc1Cn1c2c(c3cc(O)ccc31)C(=O)c1ccccc1C2=O`, for which the GI50 is inactive: > 100 µM. `Cc1ccc(S(=O)(=O)c2ccc(NC(=O)SCCC(=O)O)cc2)cc1`: the GI50 was inactive: > 100 µM. Turning to `CN(N)c1cc(=O)[nH]c(=O)[nH]1`, the GI50 was inactive: > 100 µM. Consider `N#CC(c1ccccc1)N(CCCCCCN(C(=O)c1ccccc1)C(C#N)c1ccccc1)C(=O)c1ccccc1` (stereo unspecified), for which the GI50 is inactive: 52.7 µM. On to `CN(C)c1n/c(=N/c2ccc3ccccc3c2)ss1`, for which the GI50 was inactive: 19.4 µM. On to `CCNC(=O)NNc1ncnc2c1c(-c1ccc(Cl)cc1)cn2-c1ccc(C)cc1`, for which the GI50 is inactive: 25.9 µM. Turning to `O=S(=O)(C/C(=N\O)c1ccccc1)c1ccccc1`, the GI50 is inactive: > 100 µM.

As for `CCC(CO)Nc1nc2c(c(=O)n(C)c(=O)n2C)n1CCO` (stereo unspecified), the GI50 is inactive: > 100 µM.

`C=C(Cl)C(C)(Cl)CCC(Cl)C(C)C` (stereo unspecified): the GI50 is inactive: > 100 µM. Take `COc1ccc(-c2nc(-c3cnccn3)n(C3OC(CO)C(O)C3O)n2)cc1` (stereo unspecified): the GI50 is inactive: > 10 µM. As for `COC(=O)C(Cc1ccccc1)NC(=O)Cn1ccnc1[N+](=O)[O-]` (stereo unspecified), the figure is inactive: > 100 µM.

As to `COc1cccc(NC(=O)CC(=O)N2N=C(C)C(/N=N/c3ccc(C(=O)O)cc3)C2=O)c1` (stereo unspecified), the GI50 is inactive: > 100 µM.

As to `BrC1=CC=C2NC=CC3=CC=NC1C32` (stereo unspecified), the GI50 is inactive: 24.8 µM.

As to `C[n+]1c2ccccc2n2c3ccccc3c(NCCc3ccccn3)c(C#N)c21`, the GI50 was inactive: 2.21 µM.

As for `CCOC(=O)CNC(=O)NC12CC3CC(CC(C3)C1)C2`, the GI50 was inactive: 275 µM. With `CC1(O)CC23CC1CCC2(C)C12CCCC(C)(C(=O)O1)C2CC3O` (stereo unspecified) the figure was inactive: > 100 µM; with `CC(=O)C1=C(C)NC2C=CC=CN12` (stereo unspecified), inactive: > 100 µM; with `COc1ccc(C2C(C#N)=C(S)N(C3OC(CO)C(O)C(O)C3O)C(c3ccccc3)=C2C(C)=O)cc1` (stereo unspecified), inactive: > 100 µM.

Regarding `CC(=O)/C=C/c1ccc(C2CC(C)=Nc3c(ccc4c3C(=O)c3ccccc3C4=O)N2)cc1` (stereo unspecified), the GI50 was inactive: 19.2 µM.

Regarding `C[N+](C)=C/C=C(\Cl)c1ccc2ccccc2c1`, the GI50 is inactive: 17.6 µM. As for `O=C(Nc1c(O)[nH]c(=S)[nH]c1=O)c1ccc2ccccc2n1`, the figure is inactive: > 100 µM; as for `N#Cc1c(-c2ccc(Cl)cc2)c(C#N)c(=O)n(NS(=O)(=O)c2ccccc2)c1-c1ccccc1`, inactive: > 25 µM.

With `Cc1cn(CCCCCCC2=NCCCN2)c(=O)[nH]c1=O`, the GI50 is inactive: > 100 µM.

With `CN1CCN(c2ccc3nc(-c4cc(O)c5c(nc(CO)n5C)c4O)[nH]c3n2)CC1`, the GI50 was inactive: 37.1 µM.

For `C/C(CC(=O)NC1=CC=C(NC(=O)C/C(C)=N\Nc2ccccc2)CC1)=N/Nc1ccccc1`, the GI50 is inactive: > 100 µM. As for `COc1ccc(/C=C2\C(=O)N(C(=O)Cc3ccccc3)N=C2C)cc1OC`, the figure is inactive: > 100 µM; as for `CCc1cc(=O)n(/C(C)=C/c2ccccc2)n1C`, inactive: > 100 µM. With `CCO/C(CCn1[nH]c(=O)c(Cl)c(Cl)c1=O)=N\NC(=O)C(=O)NN`, the GI50 is inactive: > 100 µM. For `COC(=O)c1cc(C#N)[nH]c1-c1ccc(C)s1`, the GI50 is inactive: 51.3 µM. As for `Cc1cc(S(=O)(=O)n2ccnc2Oc2cccc(Cl)c2)c(SSc2cc(Cl)c(C)cc2S(=O)(=O)n2ccnc2Oc2cccc(Cl)c2)cc1Cl`, the figure is inactive: 16.4 µM; as for `O=C(Cn1c2ccc(Br)cc2c2nc3ccccc3nc21)NNC(=O)NC1CCCCC1`, inactive: > 100 µM; as for `COc1ccc(O)c(C(=O)CCC(=O)O)c1`, inactive: > 100 µM.

With `C/C(CC(=O)Nc1cccc(Cl)c1C)=N\NC(N)=S`, the GI50 was inactive: > 100 µM. As for `COc1c2c(cc3c1C1(O)Cc4ccc5c(c4C[N+]1(C)CC3)OCO5)OCO2` (stereo unspecified), the figure is inactive: 91.4 µM.

As for `O=C1C=C(Nc2ccc(Cl)cc2C(=O)c2ccccc2)c2ccccc2C1=O`, the GI50 was inactive: > 100 µM. With `COc1cc(CCNC2=CC(=O)c3cccnc3C2=O)ccc1O` the figure was inactive: 1.79 µM; with `C/C(=N\N(C)C)C(CN(C)C)C(c1ccccc1)c1c(O)c2ccccc2oc1=O` (stereo unspecified), inactive: > 100 µM; with `CCOc1ccccc1NC(=O)C(C#N)C1=C(Cl)C(=O)c2ccccc2C1=O` (stereo unspecified), inactive: 1.64 µM.

As to `N#Cc1sc2c(c1OC(=O)c1ccc(Cl)cc1)c(=O)n(-c1ccccc1)c(=S)n2-c1ccccc1`, the GI50 is inactive: 30.1 µM.

`CC(=O)CCCCC(=O)Nc1ccc(CC(NC(=O)OC(C)(C)C)C(=O)NCC(=O)OCc2ccccc2)cc1` (stereo unspecified): the GI50 was inactive: 37.1 µM. As for `C=C1CC/C=C(/C(=O)O)CC[C@H]2[C@@H]1CC2(C)C`, the figure is inactive: > 100 µM; as for `NC(=O)C1C(=O)Oc2cccnc21` (stereo unspecified), inactive: > 100 µM; as for `O=C1CC2C(=O)C1C(C(=O)O)C2C(=O)O` (stereo unspecified), inactive: > 100 µM. With `O=C1c2cc(I)ccc2N2CCN=C2N1Cc1ccccc1` the figure was inactive: > 100 µM; with `CC(=O)/C=N/CC(=O)O`, inactive: > 100 µM; with `COc1ccccc1/[N+]([O-])=C/c1ccccc1OC(=S)S`, inactive: 73.1 µM. As for `O=C1CCCCC/C1=C\c1ccccc1`, the GI50 is inactive: > 100 µM.

With `CC1(C)CCCC(C)(C2CCC3(C)C2C(O)CC2C4(C)CCC(O)C(C)(C)C4CCC23C)O1` (stereo unspecified), the GI50 was inactive: > 100 µM. As for `Cc1cccc(-c2cc(O)c3cc(C)cnc3n2)c1`, the figure is active: 0.405 µM.
